# This is one part of the list.
# B1: rCNL (Clitocybe nebularis), B2ZRS9 (protein)
# chain: SITPGTYNITNVAYTNRLIDLTGSNPAENTLIIGHHLNKTPSGYGNQQWTLVQLPHTTIYTMQAVNPQSYVRVRDDNLVDGAALVGSQQPTPVSIESAGNSGQFRIKIPNLGLALTLPSDANSTPIVLGEVDETSTNQLWAFESVSAV
# Legend:
# Assay in all cases: glycan array binding signal (z-score within array); higher = stronger binding
# Conditions in all cases: glycan notation: IUPAC condensed, linker removed
# Glc(b1-6)Glc = target: Glc(b1-6)Glc
# Procedure, shortened: (§1)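 From the Consortium for Functional Glycomics database, 3228 arrays were curated, keeping only those whose protein sequence was available. Binding is given as a within-array Z-score averaged across arrays sharing a protein sequence and across linkers. Negative Z-scores can be read as non-binding.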
# GlcA(b1-3)Gal = target: GlcA(b1-3)Gal
# Procedure, shortened: as §1
# GlcA(b1-3)GlcNAc = target: GlcA(b1-3)GlcNAc
# Procedure, shortened: as §1
# GlcA(b1-6)Gal = target: GlcA(b1-6)Gal
# Procedure, shortened: as §1
# [1] = target: GlcA3S(b1-3)Gal(b1-4)GlcNAc(b1-2)Man
# Procedure, shortened: as §1
# [2] = target: GlcA3S(b1-3)Gal(b1-4)GlcNAc(b1-3)Gal(b1-4)Glc
# Procedure, shortened: as §1
# [3] = target: GlcNAc(a1-3)Gal(b1-4)GlcNAc
# Procedure, shortened: as §1
# [4] = target: GlcNAc(a1-4)Gal(b1-3)GlcNAc
# Procedure, shortened: as §1
# [5] = target: GlcNAc(a1-4)Gal(b1-4)GalNAc
# Procedure, shortened: as §1
# [6] = target: GlcNAc(a1-4)Gal(b1-4)GlcNAc
# Procedure, shortened: as §1
# [7] = target: GlcNAc(a1-4)Gal(b1-4)GlcNAc(b1-3)Gal(b1-4)Glc
# Procedure, shortened: as §1
# [8] = target: GlcNAc(a1-4)Gal(b1-4)GlcNAc(b1-3)Gal(b1-4)GlcNAc
# Procedure, shortened: as §1
# [9] = target: GlcNAc(a1-4)Gal(b1-4)GlcNAc(b1-3)Gal(b1-4)GlcNAc(b1-3)Gal(b1-4)GlcNAc
# Procedure, shortened: as §1
# [10] = target: GlcNAc(a1-4)Gal(b1-4)GlcNAc(b1-3)Gal(b1-4)[Fuc(a1-3)]GlcNAc(b1-3)Gal(b1-4)[Fuc(a1-3)]GlcNAc
# Procedure, shortened: as §1
# [11] = target: GlcNAc(a1-6)Gal(b1-4)GlcNAc
# Procedure, shortened: as §1
# [12] = target: GlcNAc(b1-2)Gal(b1-3)GalNAc
# Procedure, shortened: as §1
# [13] = target: GlcNAc(b1-2)Man(a1-3)[GlcNAc(b1-2)Man(a1-6)]Man(b1-4)GlcNAc(b1-4)GlcNAc
# Procedure, shortened: as §1
# [14] = target: GlcNAc(b1-2)Man(a1-3)[GlcNAc(b1-2)Man(a1-6)]Man(b1-4)GlcNAc(b1-4)[Fuc(a1-6)]GlcNAc
# Procedure, shortened: as §1
# [15] = target: GlcNAc(b1-2)Man(a1-3)[GlcNAc(b1-4)][GlcNAc(b1-2)Man(a1-6)]Man(b1-4)GlcNAc(b1-4)GlcNAc
# Procedure, shortened: as §1
# [16] = target: GlcNAc(b1-2)Man(a1-3)[GlcNAc(b1-4)][GlcNAc(b1-2)Man(a1-6)]Man(b1-4)GlcNAc(b1-4)[Fuc(a1-6)]GlcNAc
# Procedure, shortened: as §1
# [17] = target: GlcNAc(b1-2)[GlcNAc(b1-4)]Man(a1-3)[GlcNAc(b1-2)Man(a1-6)]Man(b1-4)GlcNAc(b1-4)GlcNAc
# Procedure, shortened: as §1
# [18] = target: GlcNAc(b1-2)[GlcNAc(b1-4)]Man(a1-3)[GlcNAc(b1-4)][GlcNAc(b1-2)Man(a1-6)]Man(b1-4)GlcNAc(b1-4)GlcNAc
# Procedure, shortened: as §1
# [19] = target: GlcNAc(b1-2)[GlcNAc(b1-4)]Man(a1-3)[GlcNAc(b1-4)][GlcNAc(b1-2)[GlcNAc(b1-6)]Man(a1-6)]Man(b1-4)GlcNAc(b1-4)GlcNAc
# Procedure, shortened: as §1
# [20] = target: GlcNAc(b1-2)[GlcNAc(b1-4)]Man(a1-3)[GlcNAc(b1-4)][GlcNAc(b1-2)[GlcNAc(b1-6)]Man(a1-6)]Man(b1-4)GlcNAc(b1-4)[Fuc(a1-6)]GlcNAc
# Procedure, shortened: as §1
# [21] = target: GlcNAc(b1-2)[GlcNAc(b1-6)]Man(a1-6)[GlcNAc(b1-2)Man(a1-3)]Man(b1-4)GlcNAc(b1-4)GlcNAc
# Procedure, shortened: as §1
# [22] = target: GlcNAc(b1-2)[GlcNAc(b1-6)]Man(a1-6)[GlcNAc(b1-2)Man(a1-3)]Man(b1-4)GlcNAc(b1-4)[Fuc(a1-6)]GlcNAc
# Procedure, shortened: as §1
# [23] = target: GlcNAc(b1-2)[GlcNAc(b1-6)]Man(a1-6)[GlcNAc(b1-4)][GlcNAc(b1-2)Man(a1-3)]Man(b1-4)GlcNAc(b1-4)GlcNAc
# Procedure, shortened: as §1
# GlcNAc(b1-3)Fuc = target: GlcNAc(b1-3)Fuc
# Procedure, shortened: as §1
# GlcNAc(b1-3)Gal = target: GlcNAc(b1-3)Gal
# Procedure, shortened: as §1
# [24] = target: GlcNAc(b1-3)Gal(b1-3)GalNAc
# Procedure, shortened: as §1
# GlcNAc(b1-3)Gal(b1-4)Glc = target: GlcNAc(b1-3)Gal(b1-4)Glc
# Procedure, shortened: as §1
# [25] = target: GlcNAc(b1-3)Gal(b1-4)GlcNAc
# Procedure, shortened: as §1
# [26] = target: GlcNAc(b1-3)Gal(b1-4)GlcNAc(b1-2)Man(a1-3)[GlcNAc(b1-3)Gal(b1-4)GlcNAc(b1-2)Man(a1-6)]Man(b1-4)GlcNAc(b1-4)GlcNAc
# Procedure, shortened: as §1
# [27] = target: GlcNAc(b1-3)Gal(b1-4)GlcNAc(b1-2)Man(a1-3)[GlcNAc(b1-3)Gal(b1-4)GlcNAc(b1-2)Man(a1-6)]Man(b1-4)GlcNAc(b1-4)[Fuc(a1-6)]GlcNAc
# Procedure, shortened: as §1
# [28] = target: GlcNAc(b1-3)Gal(b1-4)GlcNAc(b1-2)[GlcNAc(b1-3)Gal(b1-4)GlcNAc(b1-6)]Man(a1-6)[GlcNAc(b1-3)Gal(b1-4)GlcNAc(b1-2)Man(a1-3)]Man(b1-4)GlcNAc(b1-4)GlcNAc
# Procedure, shortened: as §1
# [29] = target: GlcNAc(b1-3)Gal(b1-4)GlcNAc(b1-3)Gal(b1-4)GlcNAc
# Procedure, shortened: as §1
# [30] = target: GlcNAc(b1-3)Gal(b1-4)GlcNAc(b1-3)Gal(b1-4)GlcNAc(b1-2)Man(a1-3)[GlcNAc(b1-3)Gal(b1-4)GlcNAc(b1-3)Gal(b1-4)GlcNAc(b1-2)Man(a1-6)]Man(b1-4)GlcNAc(b1-4)GlcNAc
# Procedure, shortened: as §1
# [31] = target: GlcNAc(b1-3)Gal(b1-4)GlcNAc(b1-3)Gal(b1-4)GlcNAc(b1-2)Man(a1-3)[GlcNAc(b1-3)Gal(b1-4)GlcNAc(b1-3)Gal(b1-4)GlcNAc(b1-2)Man(a1-6)]Man(b1-4)GlcNAc(b1-4)[Fuc(a1-6)]GlcNAc
# Procedure, shortened: as §1
# [32] = target: GlcNAc(b1-3)Gal(b1-4)GlcNAc(b1-3)Gal(b1-4)GlcNAc(b1-2)[GlcNAc(b1-3)Gal(b1-4)GlcNAc(b1-3)Gal(b1-4)GlcNAc(b1-6)]Man(a1-6)[GlcNAc(b1-3)Gal(b1-4)GlcNAc(b1-3)Gal(b1-4)GlcNAc(b1-2)Man(a1-3)]Man(b1-4)GlcNAc(b1-4)[Fuc(a1-6)]GlcNAc
# Procedure, shortened: as §1
# [33] = target: GlcNAc(b1-3)Gal(b1-4)GlcNAc(b1-3)Gal(b1-4)GlcNAc(b1-3)Gal(b1-4)GlcNAc(b1-2)Man(a1-3)[GlcNAc(b1-3)Gal(b1-4)GlcNAc(b1-3)Gal(b1-4)GlcNAc(b1-3)Gal(b1-4)GlcNAc(b1-2)Man(a1-6)]Man(b1-4)GlcNAc(b1-4)GlcNAc
# Procedure, shortened: as §1
# [34] = target: GlcNAc(b1-3)Gal(b1-4)GlcNAc(b1-3)Gal(b1-4)GlcNAc(b1-3)Gal(b1-4)GlcNAc(b1-2)Man(a1-3)[GlcNAc(b1-3)Gal(b1-4)GlcNAc(b1-3)Gal(b1-4)GlcNAc(b1-3)Gal(b1-4)GlcNAc(b1-2)Man(a1-6)]Man(b1-4)GlcNAc(b1-4)[Fuc(a1-6)]GlcNAc
# Procedure, shortened: as §1
# [35] = target: GlcNAc(b1-3)Gal(b1-4)GlcNAc(b1-3)Gal(b1-4)GlcNAc(b1-3)Gal(b1-4)GlcNAc(b1-2)[GlcNAc(b1-3)Gal(b1-4)GlcNAc(b1-3)Gal(b1-4)GlcNAc(b1-3)Gal(b1-4)GlcNAc(b1-6)]Man(a1-6)[GlcNAc(b1-3)Gal(b1-4)GlcNAc(b1-3)Gal(b1-4)GlcNAc(b1-3)Gal(b1-4)GlcNAc(b1-2)Man(a1-3)]Man(b1-4)GlcNAc(b1-4)[Fuc(a1-6)]GlcNAc
# Procedure, shortened: as §1
# [36] = target: GlcNAc(b1-3)Gal(b1-4)GlcNAc(b1-3)Gal(b1-4)GlcNAc(b1-3)Gal(b1-4)GlcNAc(b1-3)Gal(b1-4)GlcNAc(b1-2)Man(a1-3)[GlcNAc(b1-3)Gal(b1-4)GlcNAc(b1-3)Gal(b1-4)GlcNAc(b1-3)Gal(b1-4)GlcNAc(b1-3)Gal(b1-4)GlcNAc(b1-2)Man(a1-6)]Man(b1-4)GlcNAc(b1-4)GlcNAc
# Procedure, shortened: as §1
# [37] = target: GlcNAc(b1-3)Gal(b1-4)GlcNAc(b1-3)Gal(b1-4)GlcNAc(b1-3)Gal(b1-4)GlcNAc(b1-3)Gal(b1-4)GlcNAc(b1-2)Man(a1-3)[GlcNAc(b1-3)Gal(b1-4)GlcNAc(b1-3)Gal(b1-4)GlcNAc(b1-3)Gal(b1-4)GlcNAc(b1-3)Gal(b1-4)GlcNAc(b1-2)Man(a1-6)]Man(b1-4)GlcNAc(b1-4)[Fuc(a1-6)]GlcNAc
# Procedure, shortened: as §1
# [38] = target: GlcNAc(b1-3)Gal(b1-4)GlcNAc(b1-3)Gal(b1-4)GlcNAc(b1-3)Gal(b1-4)GlcNAc(b1-3)Gal(b1-4)GlcNAc(b1-2)[GlcNAc(b1-3)Gal(b1-4)GlcNAc(b1-3)Gal(b1-4)GlcNAc(b1-3)Gal(b1-4)GlcNAc(b1-3)Gal(b1-4)GlcNAc(b1-6)]Man(a1-6)[GlcNAc(b1-3)Gal(b1-4)GlcNAc(b1-3)Gal(b1-4)GlcNAc(b1-3)Gal(b1-4)GlcNAc(b1-3)Gal(b1-4)GlcNAc(b1-2)Man(a1-3)]Man(b1-4)GlcNAc(b1-4)[Fuc(a1-6)]GlcNAc
# Procedure, shortened: as §1
binder,measurement,setting,value
B1,glycan array binding signal (z-score),Glc(b1-6)Glc,-0.297
same,glycan array binding signal (z-score),GlcA(b1-3)Gal,-0.304
same,glycan array binding signal (z-score),GlcA(b1-3)GlcNAc,-0.297
same,glycan array binding signal (z-score),GlcA(b1-6)Gal,-0.301
same,glycan array binding signal (z-score),[1],-0.226
same,glycan array binding signal (z-score),[2],-0.227
same,glycan array binding signal (z-score),[3],0.044
same,glycan array binding signal (z-score),[4],-0.306
same,glycan array binding signal (z-score),[5],-0.295
same,glycan array binding signal (z-score),[6],-0.305
same,glycan array binding signal (z-score),[7],-0.109
same,glycan array binding signal (z-score),[8],0.009
same,glycan array binding signal (z-score),[9],0.017
same,glycan array binding signal (z-score),[10],-0.282
same,glycan array binding signal (z-score),[11],0.139
same,glycan array binding signal (z-score),[12],0.191
same,glycan array binding signal (z-score),[13],-0.157
same,glycan array binding signal (z-score),[14],-0.206
same,glycan array binding signal (z-score),[15],-0.223
same,glycan array binding signal (z-score),[16],-0.228
same,glycan array binding signal (z-score),[17],-0.103
same,glycan array binding signal (z-score),[18],-0.225
same,glycan array binding signal (z-score),[19],-0.218
same,glycan array binding signal (z-score),[20],-0.227
same,glycan array binding signal (z-score),[21],-0.215
same,glycan array binding signal (z-score),[22],-0.225
same,glycan array binding signal (z-score),[23],-0.224
same,glycan array binding signal (z-score),GlcNAc(b1-3)Fuc,-0.226
same,glycan array binding signal (z-score),GlcNAc(b1-3)Gal,-0.152
same,glycan array binding signal (z-score),[24],-0.105
same,glycan array binding signal (z-score),GlcNAc(b1-3)Gal(b1-4)Glc,0.466
same,glycan array binding signal (z-score),[25],0.117
same,glycan array binding signal (z-score),[26],-0.219
same,glycan array binding signal (z-score),[27],-0.209
same,glycan array binding signal (z-score),[28],-0.228
same,glycan array binding signal (z-score),[29],0.464
same,glycan array binding signal (z-score),[30],-0.098
same,glycan array binding signal (z-score),[31],-0.211
same,glycan array binding signal (z-score),[32],-0.218
same,glycan array binding signal (z-score),[33],-0.223
same,glycan array binding signal (z-score),[34],-0.217
same,glycan array binding signal (z-score),[35],-0.212
same,glycan array binding signal (z-score),[36],-0.219
same,glycan array binding signal (z-score),[37],-0.215
same,glycan array binding signal (z-score),[38],-0.209
